Among all 71,000 compounds or so, about 1,800 (2.5%) were called active. This list was built around the results that the source calls inconclusive (neither active nor inactive); the mix of calls is not that of the screen. Calls follow the shape of the dose curve; as a rule, active = well fitted activation curve with a large enough effect in the signal ratio, with a control signal flat (not every such curve was filed as active); inconclusive = small, poorly fitted or top-dose-only effect, or effect the other way, or a change in a side signal; inactive = flat fitted curve, though single readings scatter; the % refers to the signal ratio. Potencies beside an inconclusive call are fits to weak or partial responses and may not hold up.
Test: Cell signaling CRE-BLA (Fsk stim); as to activity change, negative = inhibition: % of control where 0% means no effect
Conditions: CHO CRE-bla reporter (cAMP response element driving beta-lactamase), forskolin EC10, beta-lactamase ratio; activity change, negative = inhibition: at 38.2 µM (top of the series) unless noted
In short: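 Forskolin analogue NKH 477 at EC10 stimulated CRE-driven beta-lactamase in CHO cells alongside compound dilution series. Beta-lactamase was measured with CCF4, excitation 405 nm, emission ratio 460/530 nm.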
Potency is read from the fitted curve at half-maximal effect; tags tell the direction and shape of the fitted curve.

Row | SMILES | activity change, negative = inhibition | Potency
1 | CCN1CCC(O)([C@H](C(=O)O)c2ccccc2)CC1 | inactive: 10.7% [at 7.6 µM] | 
2 | COC(=O)c1ccc(C(NC(=O)OCc2ccccc2)/C(F)=C/[C@@H](C)C(=O)NCCO)cc1 (some centres undefined) | inactive | 
3 | O=[N+]([O-])c1cccc2c(Br)[nH]nc12 |  | inconclusive: 12.6 µM [rising, partial curve, poor fit]
4 | CCOC(=O)N1CCC(NC(=O)c2cnn3c(C(F)(F)F)cc(-c4cccc(OC)c4)nc23)CC1 | inactive | 
5 | N#CCCN(CCC#N)c1nncs1 | inactive | 
6 | CCN(CC)c1ccc(NC(=O)c2ccc(NC(=O)C3CCCO3)cc2)c(C)c1 (centres undefined) | inconclusive: -11.8% | 
7 | COc1cc(C(=O)OCC(=O)c2cc(C)n(C)c2C)cc(OC)c1OC |  | active: 2.51 µM
8 | O=C(NCCN1CCCC1)C1CCN(S(=O)(=O)N2CCC3(CC2)OCCO3)CC1 | inconclusive: -12.2% | 
9 | Cc1ccc2cc(COC(=O)c3ccncc3)c(=O)[nH]c2c1 | inconclusive: 4% | 
10 | COc1ccc(-n2c(=S)[nH]c3cc(C(=O)NCCCN4CCCC4=O)ccc3c2=O)cc1 | inconclusive: -0.945% | 
11 | CCCn1c(SCC(=O)Nc2cccc(C(=O)OC)c2)nnc1-c1cccnc1 | inconclusive: -4.06% | 
12 | COCCNc1ncnc2ccc(-c3cccnc3)cc12 |  | inconclusive: 6.31 µM [rising, partial curve]
13 | CCOc1ccc(-c2nnc3ccc(SCc4ccc(C(=O)OC)o4)nn23)cc1 |  | active: 2 µM
14 | Cc1cc2ncn(C(=O)c3c(-c4ccccc4)noc3C)c2cc1C | inconclusive: -14.1% [at 7.6 µM] | 
15 | COC(=O)C1=C(C)NC(C)=C(C(=O)OC)C1c1ccccc1OCc1c(C)no[n+]1[O-] | inactive | 
16 | COc1cc(-c2nc(Cc3c(F)cccc3Cl)no2)cc(OC)c1OC |  | inconclusive: 1.26 µM [rising, partial curve]
17 | COC(=O)c1cc(OC)c(OC)cc1N=CC1=C(O)CC(C)(C)CC1=O |  | inconclusive: 5.01 µM [rising, partial curve]
18 | O=C(Cn1nnc(-c2ccccc2)n1)c1ccccc1 | inconclusive: -19.2% | 
19 | Nc1nnc(SCc2cccc(C(F)(F)F)c2)s1 | inconclusive: -10.6% [at 7.6 µM] | 
20 | CCN1c2ccccc2-c2nc3ccccc3n2C1c1ccccn1 (centres undefined) |  | active: 12.6 µM
21 | CCOc1cc2[nH]c(=S)n(CC3CCCO3)c(=O)c2cc1OCC (centres undefined) |  | inconclusive: 15.8 µM [rising, partial curve]
22 | CCCN(c1ccc(OCC)cc1)S(=O)(=O)c1ccc2c(c1)CCN2C(=O)CCC(=O)O | inconclusive: 6.61% | 
23 | O=c1cc(CN2CCc3ccccc32)nc2sccn12 | inactive | 
24 | O=c1cnc2cnc(Oc3ccccc3)nc2n1Cc1ccc(F)cc1 | inactive | 
25 | CCn1c(SCc2nc(-c3ccc(OC)c(OC)c3)no2)nnc1-c1cccs1 |  | inconclusive: 25.1 µM [rising, single point]
26 | CCN(Cc1ccccc1)S(=O)(=O)c1ccc(C(=O)Nc2nnc(-c3ccccc3OC)o2)cc1 |  | inconclusive: 0.1 µM [falling, full curve, poor fit]
27 | CCOC(=O)Cc1nnc(NC(=O)c2ccccc2OC)s1 |  | inconclusive: 10 µM [rising, partial curve]

Row | SMILES | activity change, negative = inhibition | Potency
28 | CS(=O)(=O)N1CCC2(CCN(Cc3ccncc3)CC2)CC1 | inactive | 
29 | c1c2c(cc3sc(N4CCOCC4)nc13)OCO2 | inactive | 
30 | CCN(CC)CCNC(=O)CS(=O)Cc1nc(-c2ccccc2Cl)oc1C (centres undefined) | inconclusive: -3.43% | 
31 | Cc1nnc(Sc2nc3c(c(=O)n(C)c(=O)n3C)n2Cc2ccc(Cl)cc2)s1 | inactive | 
32 | O=C1CCCc2c1nc(-c1ccco1)n2O | inactive | 
33 | CCN(Cc1ccccc1)C(=O)C1CCN(Cc2ccc(OC)c(OC)c2OC)CC1 |  | inconclusive: 5.01 µM [rising, single point]
34 | O=C(C1CCN(Cc2ccccc2)CC1)N1CCCC1 | inactive | 
35 | COC(=O)Nc1cc(C)nc2ccccc12 | inconclusive: 16.3% | 
36 | CC(C)C(c1nnnn1Cc1ccc2c(c1)OCO2)N1CCN(c2ccccc2)CC1 (centres undefined) | inactive | 
37 | COC(=O)CSc1nnc(CSc2nc(C)cc(C)n2)n1Cc1ccco1 | inconclusive: 25% | 
38 | CC(C)C(C(=O)Nc1ccc(N2CCOCC2)cc1)N1C(=O)c2ccccc2C1=O (centres undefined) | inactive | 
39 | O=C(NC1CCN(C(=O)N2c3ccccc3Sc3ccccc32)CC1)c1ccco1 | inconclusive: -28.9% | 
40 | COc1ccc(OCC(=O)Nc2ccccc2OC)cc1 | inactive | 
41 | Cc1cc(NC(=O)c2cc(-c3ccccn3)nc3ccccc23)no1 |  | inconclusive: 0.251 µM [rising, full curve, poor fit]
42 | CCOC(=O)c1sc2nc(CC(=O)OC)nc(NCCN3CCOCC3)c2c1C |  | inconclusive: 10 µM [rising, partial curve]
43 | COc1ccc(-c2nnc(SCc3ccccc3F)o2)cc1OC |  | active: 12.6 µM
44 | CCOc1cc(C2C3=C(CCCC3=O)NC3=C2C(=O)CCC3)cc(Cl)c1O | inactive | 
45 | CC(C)Nc1nnc(SCC(=O)Nc2ccc(F)cc2)s1 | inconclusive: 5.61% | 
46 | CCOC(=O)c1cnc(SCc2nc(N)nc(Nc3ccc(F)cc3)n2)nc1N |  | inconclusive: 12.6 µM [rising, partial curve]
47 | C[C@@]12C(=O)OC(=O)[C@]1(C)[C@H]1CC[C@@H]2O1 | inconclusive: -18.2% [at 17.1 µM] | 
48 | COc1ccc(-n2c(N3CCN(C)CC3)nc3sc4c(c3c2=O)CCCCC4)cc1 | inactive | 
49 | CC1(C)NC(=O)N(CCOc2cccc(Cl)c2Cl)C1=O | inconclusive: 0.576% | 
50 | COc1ccc(Cl)cc1NC(=O)C1CSC(c2ccncc2)=N1 (centres undefined) |  | active: 3.16 µM
51 | CC(C)=C1C2C=CC1C1C(=O)N(c3ccc4c(c3)OCO4)C(=O)C21 (centres undefined) | inconclusive: -24.6% [at 7.6 µM] | 
52 | O=c1cc(-c2ccncc2)oc2ccccc12 | inconclusive: -28.2% | 
53 | CCOC(=O)C1Cc2ccccc2C(=O)O1 (centres undefined) | inconclusive: 17.1% [at 7.6 µM] | 
54 | O=c1c2cccnc2[nH]c(=S)n1CCC1=CCCCC1 |  | inconclusive: 0.0501 µM [falling, full curve, poor fit]

Source: PubChem BioAssay AID662 (National Center for Advancing Translational Sciences (NCATS), 2007)
